Data taken from patent publication US20250230125A1 (The Board of Regents of The University of Texas System, priority 2022, published 2025).

Assays:
[1] = po; prior report; cited from earlier work
[2] = molecular target: human ether-a-go-go-related gene (hERG) potassium channel (Homo sapiens, UniProt Q12809); test: NIMH PDSP radioligand binding displacement, HERG
Sequence of human ether-a-go-go-related gene (hERG) potassium channel (Q12809 whole entry): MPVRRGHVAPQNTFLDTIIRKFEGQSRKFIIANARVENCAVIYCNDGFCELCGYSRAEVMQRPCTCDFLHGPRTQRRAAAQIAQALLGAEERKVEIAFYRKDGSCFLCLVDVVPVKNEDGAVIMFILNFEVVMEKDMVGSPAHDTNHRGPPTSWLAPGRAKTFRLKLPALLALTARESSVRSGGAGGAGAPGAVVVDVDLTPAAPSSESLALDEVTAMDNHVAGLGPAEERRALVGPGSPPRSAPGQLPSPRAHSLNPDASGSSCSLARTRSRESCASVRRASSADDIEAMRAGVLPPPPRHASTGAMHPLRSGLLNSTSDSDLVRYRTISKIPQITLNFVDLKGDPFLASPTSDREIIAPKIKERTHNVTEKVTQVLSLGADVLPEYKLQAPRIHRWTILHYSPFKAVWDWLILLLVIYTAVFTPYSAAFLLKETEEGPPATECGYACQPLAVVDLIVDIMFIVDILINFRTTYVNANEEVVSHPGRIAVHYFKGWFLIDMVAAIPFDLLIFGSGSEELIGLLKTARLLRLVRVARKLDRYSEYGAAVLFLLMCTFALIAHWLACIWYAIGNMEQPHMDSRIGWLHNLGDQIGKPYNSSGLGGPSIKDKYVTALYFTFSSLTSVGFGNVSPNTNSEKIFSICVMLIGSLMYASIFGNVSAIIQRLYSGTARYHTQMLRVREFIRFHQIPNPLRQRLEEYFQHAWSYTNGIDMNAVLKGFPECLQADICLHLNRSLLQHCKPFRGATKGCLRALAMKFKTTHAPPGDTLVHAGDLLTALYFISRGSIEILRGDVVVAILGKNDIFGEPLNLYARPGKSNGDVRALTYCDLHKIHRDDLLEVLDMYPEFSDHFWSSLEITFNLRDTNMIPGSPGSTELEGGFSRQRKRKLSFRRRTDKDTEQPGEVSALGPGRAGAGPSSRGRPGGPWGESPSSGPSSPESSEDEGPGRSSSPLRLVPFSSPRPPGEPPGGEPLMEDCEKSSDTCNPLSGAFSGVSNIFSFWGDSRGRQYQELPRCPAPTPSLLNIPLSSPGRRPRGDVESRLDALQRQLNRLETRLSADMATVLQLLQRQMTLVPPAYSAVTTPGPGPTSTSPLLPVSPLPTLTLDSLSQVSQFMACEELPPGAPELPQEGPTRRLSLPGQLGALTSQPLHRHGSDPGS

SMILES | AUC0-inf [1] | displacement of binding to hERG potassium channel (in words) [2]
CCCCCCCCCCCC1CCNC(C(=O)NCC(O)CO)C1 (centres unmarked) [Compound 2] | 737 ± 56 ng·h/mL | 
CCCCCCCC/C=C\CCCCCCCC(=O)NC(CO)CO [Compound 11, N-(1,3-Dihydroxypropan-2-yl)oleamide] |  | did not displace binding
